In PubChem BioAssay AID1347073 (National Center for Advancing Translational Sciences (NCATS), 2019):
About 200 (0.44%) of roughly 45,000 compounds were called active. The shares of active, inactive and inconclusive entries below differ from those in the screen. The call rests on the fitted dose curve; in most records, active means well fitted activation curve with a large enough effect; inconclusive means small, poorly fitted or top-dose-only effect; inactive means no such curve, though single readings can be large or run the other way. Potencies of inconclusive entries are doubtful fits and often do not repeat.

Assay: qHTS of TDP-43 Inhibitors: NCGC Sytravon Library Screen; further: nearly all actives have a fitted effect of over 55% in size; on growth rescue (activation): 0% is about no effect
Conditions: yeast TDP-43 toxicity rescue, BacTiter-Glo growth, 24 h; growth rescue (activation): at 46.1 µM (top of the series)
Procedure, shortened: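 TDP-43-expressing yeast, pregrown in raffinose, seeded at OD600 0.02 in galactose medium with compound for 24 hr at 30 deg C. Growth read by BacTiter-Glo luminescence, so rescue of toxicity appears as activation.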
Potency means the concentration at half of the fitted maximal effect; tags describe the fitted curve by direction and shape.

| Structure (SMILES) | Potency | growth rescue (activation) |
| --- | --- | --- |
| CC1CN(S(=O)(=O)c2cccc(C(=O)Nc3ccccc3N3CCOCC3)c2)CC(C)O1 (stereo unspecified) | inactive |  |
| CC(=O)/C=C(\C)N=Nc1c(O)[nH]c2ccccc12 | inconclusive: 11.2 µM [activator, single point] |  |
| COc1ccc(C(=O)OC(C)C(=O)Nc2cc(C(F)(F)F)ccc2Cl)c(OC)c1OC (stereo unspecified) | inconclusive: 20 µM [activator, single point] |  |
| COc1ccc(C(=O)CC2SC(N)=NC2=O)cc1 (stereo unspecified) | inconclusive: 25.1 µM [activator, single point] |  |
| COc1cccc(C(C)(O)c2nc(-c3ccc(OC)nc3)cs2)c1 (stereo unspecified) | active: 17.8 µM |  |
| CC(=O)c1cccc(N/C=C\C(=O)c2ccc(C)cc2)c1 | inconclusive: 31.6 µM [activator, single point] |  |
| N#Cc1ccccc1CSc1nnc(Cc2ccccc2)o1 | inconclusive: 22.4 µM [activator, single point] |  |
| Cc1cccc(C(=O)N2CCN(S(=O)(=O)N3CCCCC3)CC2)c1 | inactive |  |
| CSc1nc(C)c(Cc2ccccc2)c(=O)[nH]1 | inconclusive: 14.1 µM [activator, partial curve, poor fit] |  |
| Cc1ccc2nc(NC(=O)CCCc3nc4ccccc4s3)sc2c1 | inconclusive: 12.6 µM [activator, single point] |  |
| Cc1ccc2nsnc2c1S(=O)(=O)Nc1cccc2nsnc12 | inactive |  |
| Cc1ccc(-c2nnc3c4ccccc4c(-c4ccccc4)nn23)cc1 | inactive |  |
| Cc1ccccc1/C=C1\C(=O)Nc2ccc(F)cc21 | inconclusive: 11.2 µM [activator, single point] |  |
| COc1ccc(Cl)cc1NC(=O)CNc1ccccc1F | inconclusive: 10 µM [activator, partial curve, poor fit] |  |
| CCCN(CCC)c1ccc(C2N=C(N)Nc3nc4ccccc4n32)cc1 (stereo unspecified) | inactive |  |
| Cc1cccc(N2CCN(CCCNC(=O)c3ccc(NC(=O)C4=CSCCO4)cc3)CC2C)c1 (stereo unspecified) | inactive |  |
| CCCn1nc(C(=O)Nc2ccc(S(=O)(=O)Nc3ncccn3)cc2)c2ccccc2c1=O | inconclusive: 25.1 µM [activator, single point] |  |
| N#Cc1sc(NCc2cccc(Cl)c2)nc1Cl | inconclusive: 11.2 µM [activator, partial curve, poor fit] |  |
| CC(C)c1ccc(/C=C2\SC(N3CCOCC3)=NC2=O)cc1 | inconclusive: 17.8 µM [activator, partial curve, poor fit] |  |
| COC(=O)c1cc(C(=O)c2c(C)cc3ccccn23)cc([N+](=O)[O-])c1 | inconclusive: 17.8 µM [activator, partial curve, poor fit] |  |
| CC(=O)c1cc(C(=O)N2CCCC(C(=O)c3ccc(Cl)cc3)C2)cs1 (stereo unspecified) | inactive |  |
| O=c1ccc2cc3c(-c4ccccc4)coc3cc2o1 | inconclusive: 22.4 µM [activator, single point] |  |
| CCS(=O)(=O)Nc1ccc(-c2cn3ccsc3n2)cc1 | inactive |  |
| COc1ccc(C2N(c3ccc4c(c3)OCCO4)C(=O)C2(F)F)cc1OC (stereo unspecified) | inconclusive: 35.5 µM [activator, single point] |  |

| Structure (SMILES) | Potency | growth rescue (activation) |
| --- | --- | --- |
| COc1ccc(-c2cc(-c3ccccc3)n[nH]2)c(O)c1 | inconclusive: 12.6 µM [activator, partial curve] |  |
| O=C(CSc1nnc(COc2ccccc2)o1)NC1CC2CCC1C2 (stereo unspecified) | inactive |  |
| Cc1ccccc1-c1cc2nc(NCc3ccccc3)n(C)c(=O)c2s1 |  | inconclusive: 99% [activator] |
| COc1ccc(CNC(=O)C2CCN(c3nnc(-n4c(C)ccc4C)s3)CC2)c(OC)c1 | inactive |  |
| COc1cc(NC(=O)c2cc(-c3ccc(F)cc3OC(C)C)n[nH]2)cc(OC)c1OC |  | inconclusive: 155% [activator] |
| OC(c1ccccc1)c1nc(-c2cc(F)cc(F)c2)cs1 (stereo unspecified) |  | inconclusive: 90% [activator] |
| NC(=O)C1Cc2ccccc2CN1S(=O)(=O)c1cccs1 (stereo unspecified) | inactive |  |
| Cc1ccc(-c2csc3nc(C)n(-n4c(C)ccc4C)c(=O)c23)o1 | inconclusive: 28.2 µM [activator, single point] |  |
| S=C(NCc1ccco1)Nc1cc(Cl)c(Cl)cc1Cl | inconclusive: 10 µM [activator, partial curve, poor fit] |  |
| CC(C)=CCN1CCN(Cc2ccc(Oc3ncccn3)cc2)CC1CCO (stereo unspecified) | inactive |  |
| CCOc1ccc(C(=O)Nc2ccc3oc(-c4ccc(C)cc4C)nc3c2)cc1Br | inactive |  |
| COc1cccc(-c2cnc(C(O)c3ccc(C)cc3C)[nH]2)c1 (stereo unspecified) | inactive |  |
| O=C(Cc1ccccc1F)Nc1nc(-c2ccc(F)cc2)cs1 | inconclusive: 14.1 µM [activator, partial curve, poor fit] |  |
| O=C1/C(=C\c2ccc(O)c(O)c2)N=C2CCCCCN12 | inconclusive: 35.5 µM [activator, single point] |  |
| Cc1cc(Cl)ccc1NC(=O)CSc1nc2c(c(=O)[nH]1)CCC2 | inactive |  |
| Cc1cnc(NC(=O)C2CCCC2)s1 | inconclusive: 22.4 µM [activator, partial curve, poor fit] |  |
| CCOC(=O)c1c(NC(=O)CN2CCN(C(=O)c3ccco3)CC2)sc(C)c1C | inconclusive: 10 µM [activator, partial curve, poor fit] |  |
| O=C(NC(=S)Nc1ccccc1)c1ccc(-c2ccccc2)cc1 | inactive |  |
| CC(=O)Nc1nc2ccc(Br)cc2s1 | inconclusive: 12.6 µM [activator, partial curve, poor fit] |  |
| Cc1ccc(Cn2ccc(=O)c(OCc3c(Cl)cccc3Cl)c2C)cc1 | inconclusive: 12.6 µM [activator, partial curve, poor fit] |  |
| Cc1ccccc1Cn1c(=O)n(CCC(=O)NCc2ccco2)c(=O)c2sccc21 | inactive |  |
| Cc1nc(NC(=O)C2CCCC2)sc1Cc1ccc2c(c1)OCO2 | inconclusive: 31.6 µM [activator, single point] |  |
| CC(C)c1ccccc1NC(=O)COC(=O)COc1ccccc1[N+](=O)[O-] | inactive |  |
| CCOc1c(Cl)cc(C(=O)N(Cc2ccc(N(C)C)cc2)Cc2ccco2)cc1Cl | inconclusive: 20 µM [activator, single point] |  |

| Structure (SMILES) | Potency | growth rescue (activation) |
| --- | --- | --- |
| COC(=O)c1c(NC(=O)C2CCCO2)sc2c1CCC2 (stereo unspecified) | inconclusive: 22.4 µM [activator, single point] |  |
| CC1(C(=O)Nc2ccc3nc[nH]c3c2)CCN1C(=O)C/C=C/c1ccccc1 (stereo unspecified) | inactive |  |
| CC(C)(C)c1ccc(C(=O)N2CCC2(C)C(=O)Nc2cnc3ccccc3c2)cc1 (stereo unspecified) | inconclusive: 12.6 µM [activator, partial curve, poor fit] |  |
| COc1ccc(N2C(=O)c3ccccc3C(C)(C)C2=O)cc1 | inconclusive: 12.6 µM [activator, single point] |  |
| Cc1ccccc1CN(CC1CCC(C(=O)O)CC1)C(=S)Nc1ccccc1F (stereo unspecified) | inconclusive: 22.4 µM [activator, single point] |  |
| O=C(Nc1cnn(Cc2ccc(F)cc2)c1)c1cnccn1 | inconclusive: 2.24 µM [activator, partial curve] |  |
| COc1ccc(Br)cc1/C=C/C(=O)c1ccc(NC(C)=O)cc1 | inconclusive: 22.4 µM [activator, single point] |  |
| COC(=O)/C=C/c1ccc(OC(=O)OC)c(OC(=O)OC)c1 | inconclusive: 35.5 µM [activator, single point] |  |
| CC1(C(=O)NS(=O)(=O)c2ccc(Cl)cc2)CCN1C(=O)CC1CCCC1 (stereo unspecified) | inactive |  |
| O=C(/C=C/c1ccc(OCc2cccc(Cl)c2)cc1)N1CCOCC1 | inconclusive: 22.4 µM [activator, single point] |  |
| CCCOc1ccc(F)cc1-c1cc(C(=O)NCc2ccco2)[nH]n1 |  | inconclusive: 169% [activator] |
| Cc1ncsc1CCOC(=O)C1C2CC3CC(C2)CC1C3 (stereo unspecified) | inconclusive: 17.8 µM [activator, partial curve, poor fit] |  |
| CC(/C=N/Nc1nc(C)cc(C)n1)=C\c1ccc(C(C)C)cc1 | inconclusive: 11.2 µM [activator, single point] |  |
| CCc1nc2c(OCCC3CCCCC3)cccn2c1N(C)C(=O)c1ccccc1F | inactive |  |
| NNc1nc(-c2ccccc2)nc2sc3c(c12)CCCC3 | inconclusive: 11.2 µM [activator, single point] |  |
| O=C(CSc1ccccc1Cl)c1ccco1 | inconclusive: 12.6 µM [activator, partial curve, poor fit] |  |
| CCc1ccc(S(=O)(=O)N(C(=O)c2ccncc2)c2ccc(OC(=O)c3ccncc3)cc2)cc1 | inconclusive: 3.16 µM [activator, partial curve, poor fit] |  |
| CCCNC1=C(N(C(C)=O)c2cccc(F)c2)C(=O)c2ccccc2C1=O | inconclusive: 22.4 µM [activator, partial curve, poor fit] |  |
| COCc1cccc(-c2csc(C(C)(O)c3cccc(F)c3)n2)c1 (stereo unspecified) |  | inconclusive: 101% [activator] |
| CC(=O)N(C1=C(Cl)C(=O)c2ccccc2C1=O)c1ccc(C(=O)O)cc1 | inconclusive: 31.6 µM [activator, single point] |  |
| c1ccc(Nc2ncnc3sccc23)cc1 | inconclusive: 14.1 µM [activator, partial curve, poor fit] |  |
| Cc1ccc2c(c1)-c1nc3ccccc3cc1C2=NC1CCCCC1 | inconclusive: 35.5 µM [activator, single point] |  |
| COc1ccc(O)c(-c2cc(-c3ccccc3[N+](=O)[O-])[nH]n2)c1 | inconclusive: 31.6 µM [activator, single point] |  |
